Measured values published in PubChem BioAssay AID588342 (National Center for Advancing Translational Sciences (NCATS), 2011).
Values joined by “and” are separate entries in the source; they are usually repeats but may differ in a detail not shown here. Equal entries are not always repeated. Hit rate of the full screen: of about 360,000 compounds, about 25,000 (6.9%) were called active. Inconclusive means that the source gave no clear call. Such entries were picked first, then a sample of the others. Calls follow the shape of the dose curve; as a rule, active = well fitted inhibition curve with a large enough effect; inconclusive = small, poorly fitted or top-dose-only effect; inactive = flat fitted curve, though single readings scatter. Where the call is inconclusive, the potency comes from a doubtful curve fit.

Molecular target: Luciferin 4-monooxygenase (Photinus pyralis) (UniProt P08659)
Chain of UniProt P08659 (P08659 whole entry, looked up): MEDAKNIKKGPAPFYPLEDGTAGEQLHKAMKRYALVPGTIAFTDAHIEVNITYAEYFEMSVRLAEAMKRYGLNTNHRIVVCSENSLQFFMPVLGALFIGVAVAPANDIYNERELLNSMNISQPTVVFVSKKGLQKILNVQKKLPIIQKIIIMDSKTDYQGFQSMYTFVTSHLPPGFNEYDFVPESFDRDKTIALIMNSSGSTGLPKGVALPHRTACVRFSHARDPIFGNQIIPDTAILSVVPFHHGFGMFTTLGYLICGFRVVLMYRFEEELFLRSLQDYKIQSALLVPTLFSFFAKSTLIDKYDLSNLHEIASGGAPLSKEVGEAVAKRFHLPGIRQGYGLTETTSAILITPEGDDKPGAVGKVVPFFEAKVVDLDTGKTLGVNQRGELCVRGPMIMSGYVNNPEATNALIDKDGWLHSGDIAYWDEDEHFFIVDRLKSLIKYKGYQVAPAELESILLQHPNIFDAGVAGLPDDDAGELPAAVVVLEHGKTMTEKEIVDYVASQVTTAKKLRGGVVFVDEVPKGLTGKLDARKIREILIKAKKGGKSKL
Test: qHTS profiling assay for firefly luciferase inhibitor/activator using purifed enzyme and Km concentrations of substrates (counterscreen for miR-21 project); also: nearly all actives have a fitted effect of over 55% in size
Settings: purified FLuc, luminescence inhibition; series mostly up to 57.5 µM
Method in brief: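 Purified P. pyralis luciferase, 10 nM final, with Km-level 10 uM D-luciferin and 10 uM ATP in 50 mM Tris acetate pH 7.5, 10 mM Mg acetate, 0.01% Tween-20, 0.05% BSA; 6-point qHTS titration about 60 µM downward; luminescence read.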
Potency is read from the fitted curve at half-maximal effect; tags tell the direction and shape of the fitted curve.

Structure (SMILES)	Potency
O=S(=O)(Nc1cccc(C(F)(F)F)c1)c1ccc(NS(=O)(=O)c2ccc3c(c2)OCCO3)cc1	inconclusive: 12 µM [inhibitor, partial curve]
COc1cc(/C=N/NS(=O)(=O)c2ccc(C)cc2)ccc1OCc1cccc(C(=O)O)c1	active: 0.426 µM
COc1ccc(C(=O)Nc2cccc(-c3cn4ccsc4n3)c2)c(OC)c1	active: 2.69 µM
c1nc(NCc2ccc3c(c2)OCO3)c2cc(-c3ccoc3)ccc2n1	inconclusive: 10.7 µM [inhibitor, partial curve, poor fit]
C/C(=N\NC(=S)Nc1cccc(C)c1)c1cccc(N)c1	inconclusive: 21.3 µM [inhibitor, partial curve, poor fit]
C=CCNC(=O)c1onc(CSc2ccc(C(C)C)cc2)c1C(=O)O	inconclusive: 37.9 µM [inhibitor, partial curve, poor fit]
COc1ccc2c(c1)NC(c1ccc(N(C)C)cc1)c1cccn1-2 (stereo not drawn)	inconclusive: 37.9 µM [inhibitor, partial curve, poor fit]
N#Cc1ccc(-c2csc(NC3=NCCCCC3)n2)cc1	inconclusive: 26.9 µM [inhibitor, single point]
COc1ccccc1CCNC(=O)c1ccc(Br)s1	active: 13.5 µM
Cc1cc(NS(=O)(=O)c2ccc(NC(=O)COc3ccc(Cl)cc3Cl)cc2)no1	inconclusive: 37.9 µM [inhibitor, partial curve, poor fit]
Cc1ccsc1/C=N/N1CCN(c2ccccn2)CC1	inconclusive: 21.3 µM [inhibitor, single point]
O=[N+]([O-])c1ccccc1/C=N/N1CCN(c2ccccn2)CC1	inconclusive: 19 µM [inhibitor, partial curve]
CCNc1ccc(C(=O)OCC)cc1NC(=O)c1cccc(N(C)C)c1	inconclusive: 21.3 µM [inhibitor, single point]
CC(C)OC(=O)c1cccc(C(=O)Oc2ccccc2)n1	inconclusive: 30.1 µM [inhibitor, partial curve, poor fit]
CC(C)c1c(C(=O)N/N=C/C=C/c2ccccc2)nnn1-c1nonc1N	inconclusive: 33.8 µM [inhibitor, single point]
CCOCCCn1c(SCC(=O)Nc2cc(C)ccc2C)nc2c(oc3ccccc32)c1=O	inactive
O=C(Nc1ccc2c(c1)OCCO2)Nc1ccc2c(c1)OCO2	active: 0.953 µM
CCn1c(SCC(=O)Nc2ccc3c(c2)OCCO3)nnc1-c1ccccn1	inconclusive: 15.1 µM [inhibitor, partial curve]
Cc1ccc(-c2nc3cc(NC(=O)c4cc5ccccc5o4)ccc3o2)cc1Cl	inactive
COc1cccc(-n2nnc3c(=O)n(Cc4ccc(C)cc4)cnc32)c1	inconclusive: 30.1 µM [inhibitor, single point]
O=C(NCCCl)Nc1ccccc1OCCOc1ccccc1NC(=O)NCCCl	inactive
O=C1c2ccccc2S(=O)(=O)N1CC(O)Cn1c2ccccc2c2ccccc21 (stereo not drawn)	inconclusive: 26.9 µM [inhibitor, single point]
Fc1ccc2nc(Nc3nc4c(s3)CCCC4)sc2c1	active: 3.01 µM

Structure (SMILES)	Potency
O=C(O/N=C/C1=C(Cl)c2ccccc2CC1)c1ccc(F)cc1	active: 6.75 µM
CC(C)Oc1ccc(CN2CCc3nc(Nc4ccc5c(c4)OCCO5)ncc3C2)cc1	inconclusive: 16.9 µM [inhibitor, partial curve, poor fit]
COc1ccc(S(=O)(=O)N(CC(=O)NCc2cccnc2)C2CCCCC2)cc1OC	inactive
O=C(CSc1ccc(-c2cccs2)nn1)Nc1ccccc1	inconclusive: 37.9 µM [inhibitor, single point] and inconclusive: 23.9 µM [inhibitor, partial curve, poor fit]
C#CCOCCOCCOCCNc1nc(N2CCN(C(=O)CCCCCCCCCCNC(=O)[C@H]([C@@H](C)CC)n3cc(CCCCN=C(N)N)nn3)CC2)nc(N2CCN(C(=O)CCCCCCCCCCNC(=O)[C@@H]([C@H](C)O)n3cc(C)nn3)CC2)n1	inconclusive: 37.9 µM [inhibitor, single point]
COc1cccc(C(=O)Nc2cc(C)on2)c1OC	inconclusive: 42.6 µM [inhibitor, partial curve, poor fit]
O=C(CSc1nccc(=O)[nH]1)c1cc2ccccc2o1	active: 15.1 µM
O=C(NNc1ncnc2c1cnn2-c1cccc(Cl)c1)c1ccco1	inconclusive: 16.9 µM [inhibitor, partial curve]
Cc1cccc(-c2nc(CCNC(=O)COc3ccccc3)cs2)c1	inconclusive: 37.9 µM [inhibitor, partial curve, poor fit]
O=C(NC(=S)Nc1ccccc1Br)C1CCCC1	active: 19 µM
CCC(C)C(=O)Nc1nccs1 (stereo not drawn)	inconclusive: 26.9 µM [inhibitor, single point]
Cc1onc(NC(=O)c2ccc(Cl)cc2Cl)c1Br	inconclusive: 26.9 µM [inhibitor, partial curve, poor fit]
CCn1cnc2sc(C(=O)Nc3ccc4c(c3)OCO4)c(C)c2c1=O	active: 10.7 µM
Cc1ccc(SCCC(=O)N2CCCC2)cc1	inactive
COc1cccc(CNc2nc3ccccc3c3nc(-c4cccc(C)c4)nn23)c1	inconclusive: 12 µM [inhibitor, partial curve]
Cc1nc2ccc(NC(=O)NCc3ccco3)cc2s1	inconclusive: 19 µM [inhibitor, partial curve]
Cc1ccc(OCc2cc(C(=O)N(C)Cc3cnn(-c4ccccc4C)c3)no2)cn1	inconclusive: 23.9 µM [inhibitor, partial curve, poor fit]
CC(=NCc1ccco1)C1=C(O)c2ccccc2C1=O	inconclusive: 23.9 µM [inhibitor, single point]
COc1ccc(NC(=S)Nc2cc(C)ccn2)c(OC)c1	active: 2.69 µM
O=C(Nc1ccncc1)Nc1ccc(F)c(Cl)c1	inconclusive: 26.9 µM [inhibitor, single point]
Cc1ccnc(Nc2nc(-c3ccc(O)cc3O)cs2)c1	active: 16.9 µM
Cc1ccc(/C=N/n2c(C)nc3ccccc3c2=O)s1	inconclusive: 23.9 µM [inhibitor, single point]
CCC(=O)Nc1nc(C)c(-c2csc(Nc3cccc(O)c3)n2)s1	active: 10.7 µM

Structure (SMILES)	Potency
Cc1ccc2c(Cl)c(C(=O)NCCCn3ccnc3)sc2c1	inconclusive: 19 µM [inhibitor, partial curve]
CC1CCC(NC(=O)CNC(=O)c2cccs2)CC1 (stereo not drawn)	inconclusive: 30.1 µM [inhibitor, single point]
Fc1ccc(-c2noc3ncnc(Nc4ccc(F)cc4F)c23)cc1	inactive
CCOc1ccc2nc(SCc3ccc(C(=O)OC)o3)[nH]c2c1	inconclusive: 19 µM [inhibitor, single point]
Cc1ccc(CNC(=O)c2ccccc2SCC(=O)NCC2CCCCC2)cc1	inconclusive: 3.79 µM [inhibitor, partial curve, poor fit]
O=C(O)CCCN1C(=O)/C(=C/c2cn(-c3ccccc3)nc2-c2cccs2)SC1=S	inconclusive: 23.9 µM [inhibitor, partial curve]
Cc1c(Cl)ccc2sc(NC(=O)c3ccco3)nc12	active: 5.36 µM
CCCCC[C@H](O)/C=C/[C@@H]1[C@@H](C/C=C\CCCC(=O)OC)[C@@H](O)C[C@H]1O	inconclusive: 21.3 µM [inhibitor, single point]
COc1ccccc1OCCCOc1ccc(/C=C2\SC(=O)NC2=O)cc1OC	inconclusive: 23.9 µM [inhibitor, partial curve, poor fit]
COc1cccc(-n2c(-c3ccccc3)c[nH]c2=S)c1	inactive
COc1ccc(N=Cc2sc3ccccc3c2Cl)cc1	active: 4.78 µM
CC(=O)Nc1ccc(NC(=O)C(OC(=O)c2ccccc2)C(OC(=O)c2ccccc2)C(=O)O)cc1 (stereo not drawn)	inconclusive: 42.6 µM [inhibitor, partial curve, poor fit]
COc1ccc(CNC(=O)C(=O)Nc2c3c(nn2-c2ccccc2)CSC3)cc1	inactive
COc1cc(OC)c(OC)cc1CN1CCc2nc(Nc3ccc4c(c3)OCCO4)ncc2C1	inconclusive: 26.9 µM [inhibitor, partial curve]
CN(NS(=O)(=O)c1ccc(Br)cc1)c1nc(C(F)(F)F)nc2ccccc12	inconclusive: 37.9 µM [inhibitor, partial curve, poor fit]
Cc1ccc(NC(=O)CN2C(=O)N/C(=C\c3cccn3-c3cccc(C(=O)O)c3)C2=O)cc1	inconclusive: 26.9 µM [inhibitor, single point]
Cn1cccc1C(=O)c1ccc(Cl)cc1Cl	inactive
O=C(N/N=C/c1ccsc1)c1cc(-c2ccncc2)nc2ccccc12	inconclusive: 37.9 µM [inhibitor, single point]
C/C=C/C(=O)Nc1cccc(C2=NOC3(C2)C[C@@H](C(N)=O)N(C(=O)C(c2ccccc2)c2ccccc2)C3)c1 (stereo partly drawn)	inactive
COc1ccc(C2=NOC(CNC(=S)N3CCOCC3)C2)cc1 (stereo not drawn)	inconclusive: 23.9 µM [inhibitor, partial curve]
COc1ccc(-c2nc(C#N)c(N3CCCCC3)o2)cc1	inconclusive: 30.1 µM [inhibitor, partial curve, poor fit]
CC(/C=C/c1ccco1)=N\NC(=O)CNc1ccc2ccccc2c1	inconclusive: 23.9 µM [inhibitor, single point]
